# Inconclusive means that the source gave no clear call. Such entries were picked first, then a sample of the others. No potency is given beside an inconclusive call; the fits are too rough. Activity calls are given as the source filed them. Unless noted, the call rests on the fitted dose curve; in most records, active means well fitted curve in the direction sought with a large enough effect in the repeat runs; inconclusive means weak or mixed curves; inactive means no such curve, though single readings can be large; an effect the other way counts as inactive or inconclusive.
# Experiments:
# [1] = qHTS assay to identify small molecule antagonists of the retinoic acid receptor (RAR) signaling pathway (AID 1159552; further: nearly all actives have a fitted effect of over 50% in size)
# Summary of the method: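 Luminescent RARE reporter read-out in C3RL4 cells: 6 hr co-treatment at 37 C of test compounds with retinol at 1 uM final. Cells plated overnight beforehand; luciferase reagent incubated 30 min at room temperature before reading.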
# [2] = qHTS assay to identify small molecule agonists of the retinoic acid receptor (RAR) signaling pathway (AID 1159553); conditions: C3RL4 RARE luciferase reporter, agonist, 6 h; activation: at 73.3 µM (top of the series) unless noted; on activation: on the % scale 0 is the no-effect control and ±100 the full control effect
# Summary of the method: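 Agonist activity was scored in C3RL4 cells bearing a retinoic acid response element luciferase construct. Cells were treated with compounds for 6 hr at 37 C, and luciferase signal was measured as luminescence.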
# [3] = qHTS assay to identify small molecule agonists of the constitutive androstane receptor (CAR) signaling pathway - cell viability counter screen (AID 1224836); further: nearly all actives have a fitted effect of over 45% in size
# Summary of the method: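 Cell viability multiplexed with the CAR agonist screen: CellTiter-Fluor fluorescence after 23 hr at 37 C. HepG2-CYP2B6-hCAR cells got compounds at 15 concentrations with PK11195 at 0.75 uM final.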
# [4] = qHTS assay to identify small molecule agonists of the hypoxia (HIF-1) signaling pathway - cell viability counter screen (AID 1224844; calls by dose curve; further: nearly all actives have a fitted effect of over 50% in size)
# Summary of the method: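 Tox21 10K compounds were added to HRE-bla ME-180 cells (0.5% dialyzed FBS) and incubated 17 hrs at 37C; ATP-based CellTiter-Glo luminescence then reported cell viability in the same wells.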
# [5] = qHTS assay to identify small molecule antagonists of the estrogen related receptor (ERR) signaling pathway from Tox21 library - cell viability counter screen (AID 1224834); further: nearly all actives have a fitted effect of over 30% in size
# Summary of the method: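 Cytotoxicity of test substances is gauged in the same ERR cells used for the antagonist screen, after 17.5 h of compound treatment at 37 C, by CellTiter-Fluor fluorescence measured after 30 min.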
# [6] = molecular target: Luciferin 4-monooxygenase (Photinus pyralis) (UniProt P08659); assay: qHTS assay to identify small molecule inhibitors of firefly luciferase (AID 1224835); further: nearly all actives have a fitted effect of over 25% in size
# Summary of the method: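 Inhibition of purified Photinus luciferase is measured by luminescence. Substrate levels (D-luciferin, ATP) sit at their KM values. Each compound is tested in a concentration series.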
# [7] = qHTS assay to identify small molecule antagonists of the constitutive androstane receptor (CAR) signaling pathway - cell viability counter screen (AID 1224837); further: nearly all actives have a fitted effect of over 45% in size
# Summary of the method: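 Multiplexed cytotoxicity read-out for the CAR antagonist screen: double-stable HepG2-CYP2B6-hCAR cells co-treated with 50 nM CITCO (final) and compound over 15 concentrations, incubated 23 hr, then assessed by CellTiter-Fluor fluorescence.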
# [8] = qHTS assay to identify small molecule antagonists of the estrogen related receptor signaling pathway with the pleiotropic PPARgamma coactivator (PGC) from Tox21 10K library - cell viability counter screen (AID 1224840; active means well fitted cell-killing curve with a large enough effect in the repeat runs, not every such curve was filed as active; inconclusive means weak or mixed curves, or effect the other way; inactive means no such curve, though single readings can be large or run the other way; further: nearly all actives have a fitted effect of over 40% in size)
# Summary of the method: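 Step one, plate 2,000 PGC/ERR cells per well; step two, incubate 6 h at 37 C/5% CO2; step three, pin-transfer compounds; step four, incubate 17.5 h; step five, add CellTiter-Fluor and read fluorescence after 30 min.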
# [9] = qHTS assay to identify small molecule antagonists of the estrogen related receptor signaling pathway with the pleiotropic PPARgamma coactivator (PGC) from Tox21 10K library (AID 1224841; call rule not given here; further: actives are mostly falling curves and most rising ones were filed inactive; nearly all actives have a fitted effect of over 50% in size)
# Summary of the method: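 Antagonism in this quantitative HTS is taken from loss of luciferase signal in PGC/ERR cells. Cells (2,000/well) are treated with compounds in DMSO after a 6 h settling period and read by One-Glo luminescence after 18 h.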
# [10] = molecular target: Nuclear receptor subfamily 1 group I member 3 (Homo sapiens) (UniProt Q14994); assay: qHTS assay to identify small molecule agonists of the constitutive androstane receptor (CAR) signaling pathway (AID 1224839); further: nearly all actives have a fitted effect of over 15% in size;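 on activation: HepG2 cells stably carrying human CAR and a CYP2B6 luciferase reporter; on the % scale 0 is the no-effect control and ±100 the full control effect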
# Summary of the method: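 Luminescent ONE-Glo read-out after 24 hr, 37 C exposure of double-stable HepG2-CYP2B6-hCAR reporter cells to a 15-point compound series, in the presence of 0.75 uM PK11195 (final).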
# [11] = molecular target: Thyrotropin receptor (Homo sapiens) (UniProt P16473); assay: qHTS assay to identify small molecule agonists of the thyroid stimulating hormone receptor (TSHR) signaling pathway (AID 1224843; calls by dose curve; further: nearly all actives have a fitted effect of over 45% in size; on activation: on the % scale 0 is the no-effect control and ±100 the full control effect); conditions: TSHR-HEK293 cells, cAMP HTRF, agonist mode, 30 min; activation: at 92.4 µM (top of the series) unless noted
# Summary of the method: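 HEK293 cells stably bearing the thyrotropin receptor were plated at 800 cells/well and challenged with compound (30 min, RT). Accumulated cAMP was quantified via cAMP-d2 competing for cryptate-tagged antibody.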
# [12] = qHTS assay to identify small molecule antagonists of the estrogen related receptor (ERR) signaling pathway - cell viability counter screen (AID 1224818);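 further: viability measured after 17.5 h of compound exposure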
# Summary of the method: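 Cells carrying the ERR pathway reporter were seeded and incubated for 6 hours before compound addition. After a 17.5-hour exposure at 37 C, live-cell protease activity was measured by CellTiter-Fluor fluorescence following 30 minutes of incubation.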
# [13] = system: estrogen-related receptor alpha (ERRalpha) with PGC-1alpha coactivator, human; assay: qHTS assay to identify small molecule antagonists of the estrogen related receptor signaling pathway with the pleiotropic PPARgamma coactivator (PGC) (AID 1224821; calls by dose curve; further: nearly all actives have a fitted effect of over 50% in size)
# Summary of the method: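 Quantitative HTS for antagonism: PGC/ERR cells received compounds after 6 h attachment and were incubated 18 h at 37 C, with luminescence (One-Glo) as the endpoint.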
# [14] = qHTS assay to identify small molecule antagonists of the estrogen related receptor signaling pathway with the pleiotropic PPARgamma coactivator (PGC) cell viability counter screen (AID 1224822;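 further: viability read after 17.5 h compound exposure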)
# Summary of the method: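 Seed PGC/ERR cells (2,000/well); incubate 6 h at 37 C/5% CO2; pin-transfer compounds in DMSO; incubate 17.5 h at 37 C; add CellTiter-Fluor; after 30 min read fluorescence.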
# [15] = molecular target: Nuclear receptor subfamily 1 group I member 3 (Homo sapiens) (UniProt Q14994); assay: qHTS assay to identify small molecule antagonists of the constitutive androstane receptor (CAR) signaling pathway (AID 1224838); further: nearly all actives have a fitted effect of over 40% in size
# Summary of the method: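 Compounds were titrated across 15 concentrations onto HepG2 cells double-stably expressing hCAR and a CYP2B6-2.2kb reporter, together with 50 nM CITCO (final). After 24 h at 37 C, luciferase activity was measured by luminescence.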
# [16] = qHTS assay to identify small molecule agonists of the estrogen related receptor signaling pathway with the pleiotropic PPARgamma coactivator (PGC) from Tox21 10K library (AID 1224842); further: nearly all actives have a fitted effect of over 15% in size
# Summary of the method: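 Luminescence from One-Glo (30 min, room temperature) measured after PGC/ERR cells had 18 h at 37 C with pinned compound (23 nL in DMSO). Cells had been seeded at 2,000 per well and pre-incubated 6 h.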
# Potency means the concentration at half of the fitted maximal effect; tags describe the fitted curve by direction and shape or compound fluorescence and quenching.
# Chain of UniProt P16473 (P16473 whole entry, looked up): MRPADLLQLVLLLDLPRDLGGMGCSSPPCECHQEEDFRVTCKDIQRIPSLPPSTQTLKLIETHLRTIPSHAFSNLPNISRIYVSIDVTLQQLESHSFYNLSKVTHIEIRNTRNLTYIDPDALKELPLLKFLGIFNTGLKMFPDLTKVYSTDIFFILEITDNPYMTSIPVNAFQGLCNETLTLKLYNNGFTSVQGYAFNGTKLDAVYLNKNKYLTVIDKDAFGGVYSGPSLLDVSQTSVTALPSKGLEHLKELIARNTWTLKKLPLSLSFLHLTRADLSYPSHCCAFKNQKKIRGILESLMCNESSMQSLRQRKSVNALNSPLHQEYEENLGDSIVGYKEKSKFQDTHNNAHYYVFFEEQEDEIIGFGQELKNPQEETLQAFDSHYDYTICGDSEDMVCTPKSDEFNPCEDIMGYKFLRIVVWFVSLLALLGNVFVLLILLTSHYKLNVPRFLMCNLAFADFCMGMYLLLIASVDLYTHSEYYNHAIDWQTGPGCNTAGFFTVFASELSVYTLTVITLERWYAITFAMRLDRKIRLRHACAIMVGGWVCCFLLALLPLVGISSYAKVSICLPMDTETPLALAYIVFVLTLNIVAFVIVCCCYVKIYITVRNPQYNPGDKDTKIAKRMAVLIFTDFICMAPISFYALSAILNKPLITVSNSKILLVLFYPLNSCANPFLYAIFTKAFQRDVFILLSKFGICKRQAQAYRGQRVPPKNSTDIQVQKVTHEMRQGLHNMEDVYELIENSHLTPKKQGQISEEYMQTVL
# Chain of UniProt Q14994 (Q14994 whole entry, looked up): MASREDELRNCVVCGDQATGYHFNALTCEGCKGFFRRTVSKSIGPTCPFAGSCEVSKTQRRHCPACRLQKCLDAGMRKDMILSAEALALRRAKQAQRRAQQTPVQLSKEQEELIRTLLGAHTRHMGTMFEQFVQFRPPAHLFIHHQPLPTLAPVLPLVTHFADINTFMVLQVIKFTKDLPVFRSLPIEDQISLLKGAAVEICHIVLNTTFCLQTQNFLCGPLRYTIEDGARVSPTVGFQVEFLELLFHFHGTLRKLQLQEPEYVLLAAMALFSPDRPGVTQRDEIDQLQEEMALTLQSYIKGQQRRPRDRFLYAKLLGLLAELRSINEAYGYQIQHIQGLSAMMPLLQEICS
# Chain of UniProt P08659 (P08659 whole entry, looked up): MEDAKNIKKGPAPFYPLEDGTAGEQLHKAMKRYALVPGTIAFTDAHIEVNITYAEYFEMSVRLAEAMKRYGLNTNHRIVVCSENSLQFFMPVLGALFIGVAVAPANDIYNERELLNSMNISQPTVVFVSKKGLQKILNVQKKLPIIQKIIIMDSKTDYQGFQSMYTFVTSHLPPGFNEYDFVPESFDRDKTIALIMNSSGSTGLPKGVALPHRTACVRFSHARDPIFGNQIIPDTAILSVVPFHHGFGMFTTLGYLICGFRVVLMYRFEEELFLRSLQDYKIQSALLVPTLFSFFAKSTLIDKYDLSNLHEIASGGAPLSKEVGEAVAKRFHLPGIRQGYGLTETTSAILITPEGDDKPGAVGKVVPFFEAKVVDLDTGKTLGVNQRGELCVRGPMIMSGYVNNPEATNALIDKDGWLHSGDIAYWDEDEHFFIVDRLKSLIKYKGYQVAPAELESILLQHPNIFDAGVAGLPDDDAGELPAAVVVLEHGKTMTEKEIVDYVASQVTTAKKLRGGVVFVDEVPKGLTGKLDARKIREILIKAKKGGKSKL
structure (smiles),measurement,setting,value
C=CCCCCCCC=C,Potency,[1],"inconclusive [inhibitor, single point]"
same,Potency,[2],"inconclusive [inhibitor, partial curve]"
same,Potency,[3],inactive
same,Potency,[4],"inconclusive [cytotoxic, single point]"
O=C(Oc1cccc2cccnc12)c1ccccc1,Potency,[1],"inconclusive [inhibitor, full curve, poor fit]"
same,activation,[2],inconclusive: -31.1% [phenotype inactive]
same,Potency,[5],"inconclusive [cytotoxic, full curve]"
same,Potency,[6],"inconclusive [inhibitor, partial curve]"
same,Potency,[3],"inconclusive [cytotoxic, full curve, poor fit]"
same,Potency,[7],"inconclusive [cytotoxic, full curve, poor fit]"
same,Potency,[8],"inconclusive [cytotoxic, partial curve, poor fit]"
same,Potency,[9],"inconclusive [falling, full curve, poor fit]"
same,Potency,[4],active: 7.56 µM
Oc1ccc(Cl)cc1C1CCCC1,Potency,[1],"inconclusive [inhibitor, partial curve]"
same,Potency,[10],inconclusive [activator]
same,Potency,[11],"inconclusive [inhibitor, single point]"
same,Potency,[4],"inconclusive [cytotoxic, single point]"
Brc1cc(Oc2cc(Br)c(Br)c(Br)c2Br)c(Br)c(Br)c1Br,Potency,[2],"inconclusive [activator, partial curve]"
same,Potency,[5],inactive
Cc1cc2c(C(C)C)c(O)c(O)c(C=O)c2c(O)c1-c1c(C)cc2c(C(C)C)c(O)c(O)c(C=O)c2c1O,Potency,[2],inactive
same,Potency,[12],active: 10.2 µM
same,Potency,[13],inconclusive [inhibitor]
same,Potency,[14],inconclusive [cytotoxic]
same,Potency,[3],"inconclusive [cytotoxic, single point]"
same,Potency,[7],"inconclusive [cytotoxic, single point]"
same,Potency,[15],"inconclusive [inhibitor, partial curve, poor fit]"
same,Potency,[10],inactive
same,Potency,[4],"inconclusive [cytotoxic, single point]"
S=P(N1CC1)(N1CC1)N1CC1,Potency,[1],"inconclusive [inhibitor, partial curve, poor fit]"
same,Potency,[15],inconclusive [inhibitor]
same,Potency,[4],"inconclusive [cytotoxic, partial curve, poor fit]"
O=c1n(CCO)c(=O)n(CCO)c(=O)n1CCO,Potency,[2],"inconclusive [inhibitor, single point]"
O=C1CCCCCCCCCCCCCC1,Potency,[1],inactive
same,Potency,[10],active: 30.6 µM
same,Potency,[4],"inconclusive [cytotoxic, single point]"
CC(C)(c1ccccc1)c1ccc(Nc2ccc(C(C)(C)c3ccccc3)cc2)cc1,Potency,[1],"inconclusive [inhibitor, partial curve, poor fit]"
same,Potency,[5],inactive
same,Potency,[6],"inconclusive [inhibitor, partial curve]"
same,Potency,[3],inactive
same,Potency,[15],inactive
same,Potency,[16],"inconclusive [activator, partial curve, poor fit]"
same,activation,[11],inconclusive: 41.3%
Nc1cc(Cl)c([N+](=O)[O-])cc1O,Potency,[1],"inconclusive [inhibitor, partial curve, poor fit]"
same,Potency,[5],active: 54 µM
same,Potency,[6],"inconclusive [inhibitor, partial curve]"
same,Potency,[3],"inconclusive [cytotoxic, partial curve]"
same,Potency,[7],"inconclusive [cytotoxic, partial curve]"
same,Potency,[10],"inconclusive [activator, partial curve]"
same,Potency,[8],"inconclusive [cytotoxic, partial curve]"
same,Potency,[4],"inconclusive [cytotoxic, partial curve, poor fit]"
CC(C)c1cccc(C(C)C)c1N1C(=O)c2ccc(O)cc2C1=O,Potency,[2],"inconclusive [inhibitor, partial curve]"
same,Potency,[12],"inconclusive [cytotoxic, partial curve, poor fit]"
same,Potency,[5],"inconclusive [cytotoxic, full curve]"
same,Potency,[7],"inconclusive [rising, single point]"
same,Potency,[11],inactive
C=CC(=O)OCC(CO)(COCC(COC(=O)C=C)(COC(=O)C=C)COC(=O)C=C)COC(=O)C=C,Potency,[1],active: 7.6 µM
same,Potency,[2],active: 0.957 µM
same,Potency,[4],active: 2.16 µM
